{"source": "PubChem BioAssay AID2451", "about": "(National Center for Advancing Translational Sciences (NCATS), 2010)", "note": "Values joined by “and” are separate entries in the source; they are usually repeats but may differ in a detail not shown here. Identical values can stand only once. Hit rate of the full screen: of about 290,000 compounds, about 2,100 (0.72%) were called active. The shares of active, inactive and inconclusive entries below differ from those in the screen. Calls come from the whole dose curve; as a rule, active = well fitted inhibition curve with a large enough effect; inconclusive = small, poorly fitted or top-dose-only effect, or effect the other way; inactive = flat fitted curve, though single readings scatter. Where the call is inconclusive, the potency comes from a doubtful curve fit. % is set by controls: 0 for no effect and ±100 for the full control effect; potency is the fitted concentration of half-maximal effect; tags give direction and shape of the fitted curve.", "data": [{"target": "Fructose-bisphosphate aldolase (Giardia intestinalis (strain ATCC 50803 / WB clone C6)) (UniProt A8B2U2)", "sequence (A8B2U2 whole entry, looked up)": "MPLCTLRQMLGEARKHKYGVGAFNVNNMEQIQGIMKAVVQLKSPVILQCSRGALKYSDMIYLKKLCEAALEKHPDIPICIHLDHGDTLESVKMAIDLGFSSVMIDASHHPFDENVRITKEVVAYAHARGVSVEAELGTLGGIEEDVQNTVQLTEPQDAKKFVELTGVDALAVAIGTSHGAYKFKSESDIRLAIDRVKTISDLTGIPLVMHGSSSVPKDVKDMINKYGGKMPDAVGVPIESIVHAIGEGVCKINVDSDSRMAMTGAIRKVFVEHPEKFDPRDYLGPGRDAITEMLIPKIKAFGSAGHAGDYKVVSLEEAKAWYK", "test": "qHTS Assay for Inhibitors of Fructose-1,6-bisphosphate Aldolase from Giardia Lamblia; note: nearly all actives have a fitted effect of over 55% in size", "settings": "purified Giardia FBPA; activity, negative = inhibition: at 59.6 µM (top of the series) unless noted", "in_short": "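Giardia FBPA (40 nM reagent) was preincubated 10 min at RT with compound (up to 57.5 uM final), then substrate plus GAPDH/TPI/NAD/arsenate coupling system with diaphorase/resazurin was added; resorufin fluorescence (525/598 nm) was read after 20 min.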", "values": [{"smiles": "CC(C)c1ccc2c(c1O)CCC1C3=C(CC[C@]21C)C(=O)OC3", "note": "(stereo not given in full)", "Potency": "inconclusive: 17.7 µM [inhibitor, single point]"}, {"smiles": "CCC(C)(C)NC(=O)C(c1ccccc1Cl)N(C(=O)CCC(=O)Nc1cc(C)on1)c1ccc(NC(C)=O)cc1", "note": "(stereo not given)", "activity, negative = inhibition": "inactive: -1.56%"}, {"smiles": "COC(=O)C1=C(C)NC(=O)/C1=C\\c1ccc2c(c1)OCO2", "activity, negative = inhibition": "inactive: 3.95%"}, {"smiles": "O=C(c1ccc(F)cc1)N1CCN(C2CCC(c3ccccc3)CC2)CC1", "note": "(stereo not given)", "Potency": "inconclusive: 14.1 µM [inhibitor, partial curve]"}, {"smiles": "CC(C)(C)c1ccc(Oc2ccc(NC(=O)C3CC=CCC3C(=O)O)cc2)cc1", "note": "(stereo not given)", "Potency": "inconclusive: 22.3 µM [activator, single point]"}, {"smiles": "CCCCCc1c(C)c(C#N)c2nc3ccccc3n2c1-n1ccnc1C", "activity, negative = inhibition": "inactive: -10%"}, {"smiles": "O=C(CSCc1ccccc1)NCCc1ccc(F)cc1", "activity, negative = inhibition": "inactive: -0.446%"}, {"smiles": "COc1ccc(CN2CCN(c3cccc(C)c3C)CC2)cc1OC", "Potency": "inconclusive: 19.9 µM [inhibitor, partial curve]"}, {"smiles": "CCCCC1=CC2=CC(=O)C(C)(OC(=O)CC)C(=O)C2=CN1CCc1ccc(Br)cc1", "note": "(stereo not given)", "Potency": "inconclusive: 446 nM [inhibitor, full curve] and inconclusive: 630 nM [inhibitor, full curve]"}, {"smiles": "OCC1CCCC(n2cnc3c(=S)nc[nH]c32)O1", "note": "(stereo not given)", "Potency": "active: 3.97 µM"}, {"smiles": "O=S(=O)(NNc1cccc(Cl)n1)c1ccc(Cl)cc1", "Potency": "inconclusive: 28.2 µM [inhibitor, single point]"}, {"smiles": "CC(=O)/C(=N\\Nc1ccccc1)Sc1nnc(-c2ccccc2)n1-c1ccccc1", "Potency": "inconclusive: 7.06 µM [inhibitor, partial curve]"}, {"smiles": "Cc1ccc(C(=O)N/C(=C\\c2ccc(-c3ccccc3[N+](=O)[O-])o2)C(=O)NCCCN(C)C)cc1", "Potency": "inconclusive: 1.41 µM [inhibitor, full curve]"}, {"smiles": "COc1cc(NS(=O)(=O)c2ccc(NC(=O)c3ccc(C)o3)cc2)nc(OC)n1", "Potency": "inconclusive: 17.7 µM [inhibitor, single point]"}, {"smiles": "COC(=O)NC(CC(C)=O)c1ccc(Cl)cc1", "note": "(stereo not given)", "activity, negative = inhibition": "inactive: 1.37% [at 12.9 µM]"}, {"smiles": "O=C1NC(=O)N(c2cccc(Br)c2)C(=O)/C1=C/c1ccsc1", "Potency": "inconclusive: 22.3 µM [inhibitor, single point]"}, {"smiles": "Cc1cc(=O)[nH]c(N/N=C/c2ccccn2)n1", "Potency": "inconclusive: 3.54 µM [inhibitor, partial curve]"}, {"smiles": "COc1cc(O)c(C(C)=O)c(CC(=O)O)c1", "Potency": "inconclusive: 15.8 µM [inhibitor, partial curve]"}, {"smiles": "Cc1ccc(/C=N/NC(=O)c2c[nH]c3ccccc23)o1", "activity, negative = inhibition": "inactive: -0.859%"}, {"smiles": "COC1(OC)N=C(N)C2(C#N)C(c3cccc(Oc4ccccc4)c3)C12C#N", "note": "(stereo not given)", "Potency": "inconclusive: 15.8 µM [inhibitor, single point]"}, {"smiles": "Cc1cc(C(=O)O)ccc1-n1c(C)cc(C=C2C(=O)c3ccccc3C2=O)c1C", "Potency": "inconclusive: 15.8 µM [inhibitor, partial curve]"}, {"smiles": "COc1ccc(C(=O)NC(=S)NNC(=O)[C@H]2C[C@@H]2c2ccccc2)cc1OC", "Potency": "inconclusive: 22.3 µM [activator, single point]"}, {"smiles": "CCOc1ccc(OCC)c(NC(=O)CN2CCN(CC(=O)NC(C)C)CC2)c1", "Potency": "active: 31.6 µM"}, {"smiles": "Cc1ccccc1-c1nc(CN2CCC(C(=O)NCCCN3CCCC3)CC2)c(C)o1", "Potency": "inconclusive: 15.8 µM [inhibitor, single point]"}, {"smiles": "CCCc1[nH]nc2c1C(/C(C)=C/c1ccccc1)C(C#N)=C(N)O2", "note": "(stereo not given)", "activity, negative = inhibition": "inactive: -4.97%"}, {"smiles": "Nc1ccccc1C(=O)CC(N)C(=O)O", "note": "(stereo not given)", "Potency": "inconclusive: 17.7 µM [inhibitor, partial curve]"}, {"smiles": "CC(C)(C)c1ccc(OCC(O)CS(=O)(=O)c2ccccn2)cc1", "note": "(stereo not given)", "Potency": "inconclusive: 15.8 µM [inhibitor, partial curve]"}, {"smiles": "O=CN1CCN(C(=S)NC(=O)c2ccc(Cl)cc2)CC1", "Potency": "active: 10 µM"}, {"smiles": "O=C(N/N=C/c1cc(Cl)ccc1O)c1cccnc1", "Potency": "inconclusive: 22.4 µM [activator, partial curve]"}, {"smiles": "O=C(OCCN1CCOCC1)c1ccc(Cl)cc1Cl", "Potency": "inconclusive: 11.2 µM [inhibitor, partial curve]"}, {"smiles": "CC(C)c1ccc(NC(=O)COc2nncc3ccccc23)cc1", "activity, negative = inhibition": "inactive: 0.46%"}, {"smiles": "O=C(N/N=C/c1ccccn1)c1c[nH]c2ccccc12", "Potency": "inconclusive: 19.9 µM [inhibitor, single point]"}, {"smiles": "CC1CCCN(CCOc2cccc(Oc3ccccc3)c2)C1", "note": "(stereo not given)", "Potency": "inconclusive: 14.1 µM [inhibitor, partial curve]"}, {"smiles": "COc1ccc(CN(C)CCc2ccccn2)cc1OC", "Potency": "active: 6.29 µM"}, {"smiles": "CCSc1cc(C2C(C#N)=C(N)Oc3n[nH]c(C)c32)c(C)o1", "note": "(stereo not given)", "Potency": "inconclusive: 17.7 µM [inhibitor, single point]"}, {"smiles": "NC(=O)c1ccccc1NC(=O)Nc1ccc(F)c(Cl)c1", "activity, negative = inhibition": "inactive: 0.292%"}, {"smiles": "COc1cccc(Nc2nc(-c3ccccc3O)nc3ccccc23)c1", "activity, negative = inhibition": "inactive: -7.52%"}, {"smiles": "Cc1ccc(-n2c(SCc3ccc(C#N)cc3)nnc2-c2ccccn2)cc1", "activity, negative = inhibition": "inactive: 2.26%"}, {"smiles": "CO[C@H]1COC(=O)C/C=C\\[C@@H](C)COC(=O)[C@@H](CCSC)NC(=O)C/C=C\\[C@@H]1C", "activity, negative = inhibition": "inactive: 0.751% [at 12.9 µM] and inactive: 0.849% [at 12.9 µM]"}, {"smiles": "CCc1ccc(-c2ccc3nnc(SCC(N)=O)n3n2)cc1", "Potency": "inconclusive: 25.1 µM [inhibitor, single point]"}, {"smiles": "CC(C)(C)OC(=O)CNC(=O)c1nc[nH]c1C(=O)N1CCN(c2ccccc2)CC1", "Potency": "inconclusive: 28.2 µM [inhibitor, single point]"}, {"smiles": "Cn1c(-c2ccc3c(c2)OCO3)cnc1NCc1cccc(Cl)c1", "Potency": "inconclusive: 15.8 µM [inhibitor, partial curve]"}, {"smiles": "O=[N+]([O-])c1ccc(S(=O)(=O)N2CCN(Cc3c[nH]c4ccccc34)CC2)cc1", "Potency": "inconclusive: 19.9 µM [inhibitor, partial curve, poor fit]"}, {"smiles": "CC(Sc1nc2c(c(=O)[nH]1)CCCC2)C(=O)Nc1ccc(S(N)(=O)=O)cc1", "note": "(stereo not given)", "Potency": "inconclusive: 28.2 µM [inhibitor, partial curve]"}, {"smiles": "Cc1[nH]c2ccc3c(ncn3CCC#N)c2c1C", "Potency": "inconclusive: 11.2 µM [inhibitor, partial curve]"}, {"smiles": "CC(C)(C)c1ccc(CN(Cc2ccco2)Cc2nnnn2C2CCCC2)cc1", "activity, negative = inhibition": "inactive: -6.21%"}, {"smiles": "CCN(CC(=O)Nc1c(C(=O)OC)[nH]c2ccc(C)cc12)c1ccc2c(c1)OCO2", "Potency": "inconclusive: 14.1 µM [inhibitor, partial curve]"}, {"smiles": "Cc1ccccc1-n1c(O)cc(=O)[nH]c1=S", "activity, negative = inhibition": "inactive: -5.31%"}, {"smiles": "COc1ccc(NC(=O)O/N=C/c2ccc(Br)cc2)cc1", "activity, negative = inhibition": "inactive: -7.61%"}, {"smiles": "O=C1NC(=O)[C@@H]2C3c4ccccc4C=CN3[C@H](C(=O)c3cccs3)[C@H]12", "note": "(stereo not given in full)", "Potency": "inconclusive: 4.46 µM [inhibitor, full curve]"}, {"smiles": "COc1ccc(C(=O)NC(=S)NNC(=O)Cc2cccs2)cc1", "Potency": "inconclusive: 14.1 µM [activator, partial curve]"}, {"smiles": "CCn1c(NC(=O)/C=C/c2ccc(F)cc2)nc2ccccc21", "Potency": "inconclusive: 28.2 µM [activator, partial curve]"}, {"smiles": "CCOCCCNCC(=O)NCC1CCCCC1", "Potency": "inconclusive: 7.06 µM [inhibitor, single point]"}, {"smiles": "Cc1cc(C)nc(N/N=C/c2ccc([N+](=O)[O-])o2)n1", "Potency": "active: 28.2 µM"}, {"smiles": "COc1ccc(C(NCC(=O)Nc2c(C)cccc2C)c2ccccc2)cc1", "note": "(stereo not given)", "Potency": "inconclusive: 25.1 µM [inhibitor, partial curve]"}, {"smiles": "COc1cc(NS(=O)(=O)c2ccc(NC(=S)NC(=O)c3ccccc3)cc2)nc(OC)n1", "Potency": "inconclusive: 3.16 µM [inhibitor, partial curve]"}, {"smiles": "COc1cc(/C=N/NC2=NS(=O)(=O)c3ccccc32)cc(OC)c1OC", "Potency": "active: 7.94 µM"}, {"smiles": "O=C(NC1CCCCC1)C(c1ccncc1)N(Cc1ccc2c(c1)OCO2)C(=O)c1cnsn1", "note": "(stereo not given)", "activity, negative = inhibition": "inactive: -28.8%"}, {"smiles": "Cc1cc(C)c(C)c(OCC(O)CN2CCN(c3ccccn3)CC2)c1", "note": "(stereo not given)", "Potency": "inconclusive: 35.5 µM [inhibitor, single point]"}, {"smiles": "CCOC(=O)C1CCN(CC(C)(C)NS(=O)(=O)c2ccccc2)CC1", "Potency": "inconclusive: 14.1 µM [inhibitor, single point]"}, {"smiles": "COC(=O)C1=C[C@@H](C(=O)OC)C2C3=C(C(=O)[C@@]2(C)NC(=O)c2ccccc2)[C@H](C)n2c(=O)n(C)c(=O)n2[C@@H]3C1", "note": "(stereo not given in full)", "activity, negative = inhibition": "inactive: 2.58%"}, {"smiles": "C[C@H]([C@H](C)N1CC(=O)NC(=O)C1)N1CC(=O)NC(=O)C1", "Potency": "inconclusive: 28.1 µM [inhibitor, single point]"}, {"smiles": "CN(C)C(/C=C/Nc1ccc(O)cc1)=C(C#N)C#N", "activity, negative = inhibition": "inactive: -22%"}, {"smiles": "Cc1ccn2cc(-c3ccc4c(c3)NC(=O)CO4)nc2c1", "Potency": "inconclusive: 17.7 µM [inhibitor, single point]"}, {"smiles": "Cn1ncc([N+](=O)[O-])c1C(=O)N/N=C/c1cccc([N+](=O)[O-])c1", "Potency": "inconclusive: 15.8 µM [inhibitor, partial curve]"}, {"smiles": "COc1ccc(N=C2C(=O)Nc3c(C)cccc32)cc1", "Potency": "inconclusive: 19.9 µM [inhibitor, partial curve]"}, {"smiles": "Nc1ccc(O)cc1C(=O)OCC(=O)C12CC3CC(CC(C3)C1)C2", "Potency": "inconclusive: 2.51 µM [inhibitor, full curve]"}, {"smiles": "COCCCNC(=O)CSc1ccc(Cl)cc1", "Potency": "inconclusive: 31.5 µM [activator, single point]"}, {"smiles": "CC(CCc1ccccc1)NC(=O)[C@@H]1Cc2ccccc2CN1", "note": "(stereo not given in full)", "activity, negative = inhibition": "inactive: 14.4%"}, {"smiles": "COCCNC(=S)N1CCN(C)CC1", "Potency": "inconclusive: 14.1 µM [inhibitor, partial curve]"}]}]}
